In PubChem BioAssay AID1865 (National Center for Advancing Translational Sciences (NCATS), 2009):
Screen size: about 280,000 compounds; about 540 (0.19%) were called active. Inconclusive means that the source gave no clear call. Such entries were picked first, then a sample of the others. Calls follow the shape of the dose curve; as a rule, active = well fitted activation curve with a large enough effect; inconclusive = small, poorly fitted or top-dose-only effect; inactive = flat fitted curve, though single readings scatter. Potencies beside an inconclusive call are fits to weak or partial responses and may not hold up.

Assay: Quantitative High-Throughput Screen for Regulators of Epigenetic Control; also: nearly all actives have a fitted effect of over 60% in size; as to GFP activation: % of control where 0% means no effect
Details: murine LDR cells, GFP reporter derepression, 30 h; GFP activation: at 53.9 µM (top of the series)
Method in brief: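 Readout is the number of GFP-expressing murine LDR cells, counted by cytometry following washing. Cells were treated with compound for 30 h at 37 C; the stably integrated CMV-GFP locus is normally silent.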
Potency is read from the fitted curve at half-maximal effect; tags tell the direction and shape of the fitted curve.

Row | Structure (SMILES) | Potency | GFP activation
1 | O=C1C=CC(=O)N1c1ccc(N2CCCCC2)cc1 | inconclusive: 6.31 µM [activator, single point] | 
2 | O=c1c2sc3ccccc3c2n(Cc2ccccc2F)c(=O)n1CCc1ccccc1 |  | inactive: -8.58%
3 | CCOC(=O)/C(C)=C1\NC(C)(C)Cc2ccccc21 | inconclusive: 35.5 µM [activator, single point] | 
4 | C[N+]12CCCCC1C(COC(=O)c1ccc3c(c1)OCO3)CCC2 (stereo not drawn) |  | inactive: -1.06%
5 | Cc1cc(C)nc(S/C=C/C(=O)c2ccc(F)cc2)n1 | inconclusive: 3.55 µM [activator, full curve, poor fit] | 
6 | Cc1cccc(CNC(=O)c2ccc(Cn3c(=O)c4cccn4c4cccnc43)cc2)c1 | active: 17.8 µM | 
7 | Cc1cc(/C=N/NC(N)=S)c(C)n1-c1ccc(Cl)c(Cl)c1 | inconclusive: 35.5 µM [activator, single point] | 
8 | CCn1nnnc1NC(=O)c1cc(OC)c(OC)c(OC)c1 |  | inactive: 2.16%
9 | Cn1c(CCNC(=O)c2ccco2)nc2cc(NC(=O)COc3ccc(Cl)cc3)ccc21 | inconclusive: 15.8 µM [activator, partial curve] | 
10 | CC(=O)OCC1OC(C#Cc2ccc(C)cc2C)C=CC1OC(C)=O (stereo not drawn) | inconclusive: 5.62 µM [activator, single point] | 
11 | CCc1cc2c(N=Nc3c(O)[nH]c4ccccc34)ncnc2s1 | active: 22.4 µM | 
12 | CCc1nc(N2CCC3(CC2)OCCO3)c2nnn(Cc3ccccc3)c2n1 |  | inactive: 0%
13 | CCN1/C(=C\c2ccc3cc(C)ccc3[n+]2CC)Sc2cc(C)c(C)cc21 | active: 3.16 µM | 
14 | CCCC(=O)N1CCN(c2ccc(NC(=O)c3ccc([N+](=O)[O-])o3)cc2)CC1 | inconclusive: 4.47 µM [activator, single point] | 
15 | COc1ccc2c(C)cc(SCC(=O)N(C)C3CCS(=O)(=O)C3)nc2c1 (stereo not drawn) | active: 10 µM | 
16 | O=C1C=CC2=C3c4cc(O)c(O)cc4C[C@@]3(O)COC2=C1 | inconclusive: 15.8 µM [activator, single point] | 
17 | CC(C)c1ccc2nc3sc(C(=O)N4CCc5ccccc5C4)c(N)c3cc2c1 | inconclusive: 35.5 µM [activator, single point] | 
18 | COCCNc1ccc(-c2nn(C)c(=O)c3ccccc23)cc1[N+](=O)[O-] | inconclusive: 35.5 µM [activator, single point] | 
19 | O=C(Nc1ccc(SC(F)F)cc1)c1cccc2nc3ccccc3nc12 | active: 7.08 µM | 
20 | O=C1C(C2=C(O)c3ccccc3C2=O)=Nc2ccccc21 | active: 7.94 µM | 
21 | O=[N+]([O-])c1cc(S(=O)(=O)C(F)(F)F)ccc1Sc1nc2ccccc2s1 | inconclusive: 5.62 µM [activator, single point] | 
22 | CC1=Nc2ccccc2/C1=C\c1nc(-c2ccc(C(F)(F)F)cc2)oc1O | active: 12.6 µM | 
23 | Cc1cccc(NC(=O)c2nc[nH]c2C(=O)N[C@@H](Cc2ccccc2)C(=O)OCc2ccccc2)c1 | inconclusive: 35.5 µM [activator, single point] | 
24 | Cc1ccccc1OCC(=O)Nc1nnc(S(=O)(=O)N(C)c2ccccc2)s1 | inconclusive: 31.6 µM [activator, single point] | 
25 | CN1CCc2c(sc3c2C(=O)NC(c2ccc(-c4ccc(Cl)cc4)o2)N3)C1 (stereo not drawn) | inconclusive: 25.1 µM [activator, single point] | 

Row | Structure (SMILES) | Potency | GFP activation
26 | CCOC(=O)/C=c1\s/c(=C\c2ccc3cc(OC)ccc3c2)c(=O)n1CC(=O)NCC1CCCO1 (stereo not drawn) | inconclusive: 0.794 µM [activator, single point] | 
27 | Cc1c(Cl)cccc1NC(=S)N/N=C/c1ccccc1Cl |  | inactive: 2.13%
28 | CCOc1ccccc1CNC(=O)c1ccc(Cn2c(=O)c3cccn3c3cccnc32)cc1 | inconclusive: 31.6 µM [activator, single point] | 
29 | CC(C)c1ccc(-c2noc(SCC(=O)N3CCCCC3)n2)cc1 |  | inactive: -2.75%
30 | CCN(CC(=O)Nc1cccc(Br)c1)Cc1nc2ccccc2c(=O)[nH]1 |  | inactive: 0.632%
31 | COc1cc(/C=C(\C#N)c2nc3c(s2)CCCC3)ccc1O | inconclusive: 35.5 µM [activator, single point] | 
32 | C=CCOC(=O)C1=C(C)Nc2nnnn2C1c1cccc(OC)c1OC (stereo not drawn) |  | inactive: 0%
33 | COc1cccc(CNC(=O)C2CCN(c3ncnc4c3nc3n4CCCCC3)CC2)c1 |  | inactive: 9.04%
34 | COc1ccc2c(Cl)c(C(=O)N/N=C3\CCCC(=O)C3)sc2c1 | active: 11.2 µM | 
35 | COC(=O)CN1C(=O)N/C(=C/c2ccc(C)o2)C1=O | inconclusive: 22.4 µM [activator, single point] | 
36 | CCN1CCc2c(sc(NC(=O)CSc3ccccc3)c2-c2nc3ccccc3s2)C1 | active: 0.891 µM | 
37 | COc1cc(/C=C2\C(=O)NN(c3ccccc3)C2=O)cc([N+](=O)[O-])c1O |  | inactive: -0.487%
38 | CC(C)c1ccc(Nc2nnc(SC3CCOC3=O)s2)cc1 (stereo not drawn) | inconclusive: 25.1 µM [activator, single point] | 
39 | COc1ccccc1Nc1nc(-c2cccc([N+](=O)[O-])c2)nc2ccccc12 |  | inactive: 0.372%
40 | CC(=O)N[C@@H](CSC(=O)[C@]1([C@@H](O)C(C)C)NC(=O)[C@H](C)[C@@H]1O)C(=O)O | inconclusive: 2.51 µM [activator, partial curve] | 
41 | CCC1Oc2ccc(C)cc2N(CC(=O)N(Cc2cccnc2)Cc2ccc(C)o2)C1=O (stereo not drawn) | inconclusive: 35.5 µM [activator, single point] | 
42 | CCOc1cc(C(=O)N/N=C/C(Br)=C/c2ccccc2)cc(OCC)c1OCC | inconclusive: 25.1 µM [activator, single point] | 
43 | C[c-]1[c-](C)[c-](C)[c-](C)[c-]1C.[Fe].c1cc2nccc(N3CCCC3)[c-]2c1 (stereo not drawn) | inactive | 
44 | O=c1c2ccccc2nc2n1CCCCC2 |  | inactive: -1.08%
45 | CN(Cc1ccccc1)C(=O)c1[nH]cnc1C(=O)N[C@@H](Cc1ccccc1)C(=O)OCc1ccccc1 |  | inactive: 0%
46 | Nc1c(C(=O)Nc2ccccc2F)sc2nc(Cc3ccccc3)cc(C(F)(F)F)c12 | active: 12.6 µM | 
47 | CSc1cccc(NC(=O)N2CCN(C)CC2)c1 |  | inactive: 0%
48 | CCN(CC)C1=N/C(=C\c2ccc(OC)cc2)C(=O)N1c1ccccc1 | inconclusive: 22.4 µM [activator, single point] | 
49 | Cc1cc(C)c(C#N)c(SCC(=O)c2cccs2)n1 | inconclusive: 28.2 µM [activator, single point] | 
50 | CCNc1oc(COc2ccccc2F)nc1C#N | inconclusive: 4.47 µM [activator, single point] | 

Row | Structure (SMILES) | Potency | GFP activation
51 | CCCn1c(=N)n(CC(=O)c2ccc([N+](=O)[O-])cc2)c2ccccc21 | inconclusive: 20 µM [activator, single point] | 
52 | Cc1cccc(NC(=O)/C=C/c2ccc([N+](=O)[O-])s2)c1 | active: 7.08 µM | 
53 | CCOC(=O)N1CCC(=NNc2ncc(C(F)(F)F)cc2Cl)CC1 |  | inactive: -0.435%
54 | CCc1ccc(C2N3CC4(C)CN2CC(c2ccccc2)(C3)C4=O)cc1 (stereo not drawn) | inconclusive: 11.2 µM [activator, partial curve, poor fit] | 
55 | COC(=O)c1sc2cc([N+](=O)[O-])cc(SCC(C)C)c2c1N | inconclusive: 7.94 µM [activator, partial curve] | 
56 | COCc1cc(=O)[nH]c(SCCS(=O)(=O)c2ccc(Cl)cc2Cl)n1 |  | inactive: 3.16%
57 | Cc1cccc(C)c1N/C=C/c1onc(C)c1[N+](=O)[O-] | inconclusive: 25.1 µM [activator, single point] | 
58 | Cc1ccc(C(=O)c2cn(CC(=O)Nc3ccc4c(c3)OCCO4)c3nc(C)ccc3c2=O)cc1 | inconclusive: 31.6 µM [activator, single point] | 
59 | O=C(CC1Nc2ccccc2NC1=O)c1ccccc1 (stereo not drawn) | inconclusive: 31.6 µM [activator, single point] | 
60 | O=C(Nc1ccccc1)c1ccc(NCCc2ccccc2)c([N+](=O)[O-])c1 | active: 12.6 µM | 
61 | CCc1c(C)nc2ncnn2c1N1CCCC(C(=O)NCc2cccs2)C1 (stereo not drawn) |  | inactive: 1.74%
62 | O=C(N/N=C/C(Br)=C\c1ccccc1)c1ccco1 | inconclusive: 35.5 µM [activator, single point] | 
63 | Oc1ccccc1N=Cc1c(O)ccc2ccccc12 | inconclusive: 35.5 µM [activator, single point] | 
64 | CCOC(=O)C1=C(C)N(C)C(=O)C1CC(=O)O (stereo not drawn) | inconclusive: 5.01 µM [activator, single point] | 
65 | CCOC(=O)c1c(C)[nH]c(N=Nc2ccc(OC)cc2)c1C |  | inactive: -4.17%
66 | O=C(Nc1cccc(Cl)c1)c1ccc2c(c1)SC1=NS(=O)(=O)CCN12 | inconclusive: 15.8 µM [activator, single point] | 
67 | COc1ccc(-c2ccc(-c3cc(=O)oc4cc(OC)c(OC)c(OC)c34)cc2)cc1F | inconclusive: 3.55 µM [activator, single point] | 
68 | Nc1nc(-c2nonc2N)no1 | inconclusive: 6.31 µM [activator, single point] | 
69 | COc1ccc(/C(O)=C/c2nc3ccc(C(=O)NCCc4cccc(C)c4)cc3[nH]c2=O)cc1OC | active: 17.8 µM | 
70 | Nc1c(S(=O)(=O)c2ccccc2)c2nc3ccccc3nc2n1Cc1ccco1 |  | inactive: -1.12%
71 | COCCn1nnnc1CN(CCCN1CCOCC1)Cc1cc2c(C)ccc(C)c2[nH]c1=O | inconclusive: 35.5 µM [activator, single point] | 
72 | COc1ccc(NC2=NCC(=O)N2c2ccccc2F)c(OC)c1 | inconclusive: 6.31 µM [activator, single point] | 
73 | COC(=O)c1ccc(/C=C/C(=O)c2ccc(OC)cc2)cc1 | inconclusive: 31.6 µM [activator, single point] | 
